Reference: the supplement of paper PMC12217912
This is one part of the list. The full chains were built here from the parent and the listed change. Values near 0.05 are background.

B1: TEV protease; numbered along this chain (parent)
chain: MGESLFKGPRDYNPISSSICHLTNESDGHTTSLYGIGFGPFIITNKHLFRRNNGTLVVQSLHGVFKVKDTTTLQQHLVDGRDMIIIRMPKDFPPFPQKLKFREPQREERICLVTTNFQTKSMSSMVSDTSCTFPSGDGIFWKHWIQTKDGQCGSPLVSTRDGFIVGIHSASNFTNTNNYFTSVPKNFMELLTNQEAQQWVSGWRLNADSVLWGGHKVFMVKPEEPFQPVKEATQL

Variants of: B1
Assay: raw area under fraction-flipped curve 0-4 h after induction (AUC4h, not background-subtracted), DNA-recorder readout of cleavage of the substrate (dimensionless); higher = more cleavage of the substrate by the protease variant
Details: temperature: 34 °C; time window: 0-4 h after rhamnose induction
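Note: Bxb1 expression induced with 0.2% (w/v) L-rhamnose at OD600 near 0.5, cultures sampled hourly, flipped fraction per protease–substrate barcode pair counted by paired-end Illumina sequencing.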

Variant	area with substrate ENCYFQS	area with substrate ENDYFQS	area with substrate ENEYFQS	area with substrate ENFYFQS	area with substrate ENGYFQS	area with substrate ENHYFQS	area with substrate ENKYFQS	area with substrate ENMYFQS	area with substrate ENQYFQS	area with substrate ENRYFQS	area with substrate ENSYFQS	area with substrate ENVYFQS	area with substrate ENYYFQS	area with substrate ENNYFQS	area with substrate ENPYFQS	area with substrate ENTYFQS	area with substrate ENWYFQS	area with substrate ENIYFQS
E103A	0.0701	0.0725	0.0627	0.0574	0.056	0.0733	0.0583	0.0901	0.0616	0.0574	0.0599	0.084	0.0621	–	–	–	–	–
T115N	0.0625	0.0615	–	–	0.0527	0.0532	–	0.0872	0.0716	0.0457	0.0304	0.0852	–	0.0593	0.0531	0.0822	–	–
Q118T	0.071	0.0345	0.067	–	–	–	0.0427	–	0.0569	0.0703	0.0685	0.103	–	–	–	0.0436	0.0596	–
T129Q	0.0575	0.0738	0.0648	0.0555	0.0659	–	0.0754	–	0.0467	–	0.0448	–	–	0.0645	0.0673	0.0637	–	–
F133N	0.0635	0.0734	0.0702	0.0619	0.0599	0.0647	–	–	0.0566	0.0721	0.0693	–	0.0635	–	–	0.0664	–	0.122
I139G	0.0883	0.0624	0.0584	0.0898	–	0.0553	0.0656	0.0707	0.0612	0.0411	0.0535	0.0601	–	0.0681	0.0514	0.0502	–	0.118
V157A	0.0649	0.0748	0.0775	0.0481	0.0598	–	0.0678	–	–	–	0.0749	0.0609	0.0526	0.0635	–	–	0.0493	0.09
I167T	0.0462	0.0631	0.0412	0.0593	0.0682	0.0488	0.0533	0.0564	0.0524	–	0.0593	0.0565	–	0.0509	–	0.0552	0.0521	0.053
F180L	0.102	–	–	0.0574	–	0.0589	–	–	–	–	0.0541	0.0818	0.0653	0.0642	0.0524	–	0.0603	–
F187Q	0.055	–	–	–	0.0622	0.0619	–	–	0.0567	0.0606	0.049	0.0552	0.0445	0.0558	–	0.0456	–	0.0569
W199H	0.068	0.0683	0.0524	–	0.0612	0.0567	–	–	0.0709	0.057	0.0672	–	–	–	–	0.0687	–	0.0685
W203Y	0.0683	–	0.0551	–	–	0.0519	–	–	0.0553	0.0612	0.0725	0.0632	–	–	–	0.0519	–	0.0957
H215D	0.0597	0.0698	–	0.075	0.063	0.0661	0.0638	0.0615	0.0578	0.0635	0.0548	0.0545	–	0.0678	0.0605	0.0621	0.0607	–
M219E	0.0699	0.0629	0.0708	–	0.0898	0.0621	–	0.0711	0.0493	0.0534	0.0615	–	–	0.0651	0.0426	0.0605	–	–
V220I	0.0646	0.0583	0.0695	0.0613	0.0619	0.0698	0.0527	0.076	–	0.0418	0.0719	0.0806	–	0.0507	0.0902	0.0604	–	0.127
K221Q	0.0524	0.0655	–	–	–	0.0595	–	0.0574	0.0621	0.058	0.0578	–	–	–	–	0.0575	–	–
P222S	0.0705	0.0541	0.0606	0.0506	0.0564	0.0683	–	0.0589	0.0572	–	0.0616	–	–	0.0606	0.0714	0.0794	–	–
K230E	0.0608	0.0645	0.0683	0.0601	0.0591	0.0456	–	–	0.0581	0.0608	0.0675	0.074	0.0686	0.0436	–	0.0747	0.0835	0.116
K230M	0.0856	0.0797	0.0572	0.0483	0.0624	0.0538	0.0573	–	0.0587	0.0583	0.0466	0.0686	0.056	0.0507	0.0583	0.0838	–	0.0891
T233G	0.0625	0.0445	–	0.0497	0.0675	0.056	0.0635	0.0676	0.0659	–	0.057	0.0684	0.0516	0.0492	0.0565	0.079	0.0557	–
S60L	–	0.0515	–	–	0.0513	0.047	–	–	0.0585	–	0.0718	0.0686	–	–	–	0.08	–	0.0958
V78F	–	0.0591	0.0646	0.0645	0.0643	–	0.0593	–	–	0.0542	0.061	–	0.0617	0.0512	–	0.0502	–	–
D82Y	–	0.058	0.0547	–	0.0617	0.0499	–	0.0483	0.0471	–	–	0.0693	–	–	–	–	–	–
F92H	–	0.0608	–	–	0.0625	–	–	–	–	0.0492	0.0429	–	0.0562	–	–	0.0718	–	0.11
V126F	–	0.0637	0.0755	0.0604	–	0.0606	–	0.0742	0.0616	0.0559	0.0535	0.101	–	0.0549	–	0.0571	0.0347	0.104
S127P	–	0.0723	0.0633	–	0.0602	0.0504	0.0595	0.0682	0.047	0.0583	0.05	0.0811	–	0.0576	0.0603	0.0661	–	–
D137L	–	0.0625	0.0778	0.0729	0.0618	0.0846	0.0677	–	0.0483	–	0.0548	0.0848	0.0624	0.0623	0.0526	0.068	–	0.0908
F140K	–	0.0762	0.059	0.0493	0.0375	–	–	–	0.0518	0.0511	–	0.0564	–	–	0.0607	–	–	0.0706
I145D	–	0.0564	0.0516	–	0.0596	0.0608	–	0.045	0.056	–	0.0549	0.0616	0.0468	–	–	0.0617	–	–
